Measurements reported in the RNAGym collection of RNA variant scans (doi:10.1093/nar/gkz1192).
Read counts are not given, so values of variants with three or more changes are uncertain.

B1: CPEB3 Ribozyme (parent)
chain: UAACAGGGGGCCACAGCAGAAGCGUUCACGUCGCAGCCCCUGUCAGAUUCUGGUGAAUCUGCGAAUUCUGCUGUAUAUCUC

Variants of: B1
Assay: self-cleavage, relative activity (ratio to wild type); higher = more cleavage; in vitro, sequencing
Procedure, shortened: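 Libraries of CPEB3 self-cleaving ribozyme mutants came from rounds of error-prone PCR and carried barcodes, which DNA sequencing matched to variants. In vitro transcription used T7 RNA polymerase at 37°C for 5 hours, with a further 15 min in DNase I before EDTA stopped the reaction; the ribozymes cleaved during both steps. The RNA was reverse transcribed with template switching and sequenced on Illumina. Relative activity is the cleaved/total read fraction of a variant divided by that of the unmutated ribozyme, averaged over three batches with at least 5 reads.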

Row | Variant | self-cleavage
1 | G10U A15G U66A A77G U80A | 0.04
2 | G10U A15U G22U | 0.2
3 | G10U A18G A45U A56U A65G | 0.04
4 | G10U A20G A45U A47G A77U | 0.03
5 | G10U A35G U43C U58C G61A | 0.06
6 | G10U A35U U41A A57G A65G U78A | 0.02
7 | G10U A45G A64G | 0.45
8 | G10U C17G A77G | 0.11
9 | G10U U41C U69A U80C | 0.05
10 | G10U U41G U43C U51C U69A | 0.14
11 | G10U U54A U80C | 0.2
12 | C11A A13G A21G U41A A47G A57G U66C | 0.03
13 | C11A A13G C29U U58C U72C A75G | 0.03
14 | C11A A13G U67C G70C U80A C81U | 0.05
15 | C11A A13U G53U | 0.45
16 | C11A A15G C39A A45C A47U U58A U80C | 0.31
17 | C11A A15G G16A A65G | 0.21
18 | C11A A15U A35U A45G U67C U69C | 0.08
19 | C11A A15U U25A U26A U49A U51A U78C | 0.04
20 | C11A A18G A45G U66C U72C U76C | 0.04
21 | C11A A18G A57G | 0.32

Row | Variant | self-cleavage
22 | C11A A18U A21U C27A G63A | 0.07
23 | C11A A20C A28U U31C A47U | 0.05
24 | C11A A20G G24A U25C | 0.06
25 | C11A A20G G30A A77G | 0.28
26 | C11A A21G A28U A65G | 0.05
27 | C11A A21U A65G U66A | 0.22
28 | C11A A28C U51A U58A U76C | 0.04
29 | C11A A28G C37G U43C C59A U80A | 0.03
30 | C11A A28G C40A U60A U69C U76C | 0.03
31 | C11A A28G U67C | 0.16
32 | C11A A28G U72G | 0.04
33 | C11A A28U U43A A64G U69A U72A | 0.05
34 | C11A A35G A45U G53A | 0.49
35 | C11A A35G U43G | 0.5
36 | C11A A35U C40U A57G U72A | 0.06
37 | C11A A35U U54A U80C | 0.38
38 | C11A A45U A57G | 0.27
39 | C11A A47G U49C C68U | 0.05
40 | C11A A47U U54C A65G U66A | 0.05
41 | C11A A64G U69A U72A | 0.06
42 | C11A A64G U76A | 0.13

Row | Variant | self-cleavage
43 | C11A C14A U67C A75U | 0.09
44 | C11A C14U U41G U60C | 0.32
45 | C11A C27A U67A | 0.09
46 | C11A C32U U41A U58A C62A | 0.04
47 | C11A C40A C62G | 0.05
48 | C11A C50U U69C U72C U76C | 0.06
49 | C11A G19U A20G U31C A35G C38U U69C | 0.02
50 | C11A G33A U54C U67C | 0.09
51 | C11A U25A U31A A35G U43A U60C U80C | 0.05
52 | C11A U25C A35U U41A U80A | 0.26
53 | C11A U25C U26C | 0.53
54 | C11A U26A A56G | 0.42
55 | C11A U26A C29U C37G U48C U51G | 0.03
56 | C11A U26C C34U | 0.07
57 | C11A U26C G73A U78A | 0.2
58 | C11A U31A A47G U54A U67C U69A | 0.05
59 | C11A U41A U66C | 0.06
60 | C11A U54A A56G U78C | 0.27
61 | C11A U66C U74C A75U U80C | 0.1
62 | C11G A13C A35U U41A U51C A56G U80C | 0.35
63 | C11G A13G A28C A35C U41A U69C U74C | 0.04

Row | Variant | self-cleavage
64 | C11G A13G A45G A57G U66A | 0.04
65 | C11G A13G G46A U69A U72G | 0.07
66 | C11G A13G U41A U51C A57G U66A | 0.08
67 | C11G A13U U25C G33A | 0.05
68 | C11G A13U U26G U72A | 0.07
69 | C11G A15G A56G | 0.19
70 | C11G A15G C38A U43A U69C | 0.01
71 | C11G A15G G36A U60C | 0.08
72 | C11G A15G U25C C40G U60C U69C | 0.06
73 | C11G A15G U26C U41A | 0.09
74 | C11G A15G U49A | 0.33
75 | C11G A15G U49C | 0.13
76 | C11G A18G U31C G36C U49G U60A U74C | 0.15
77 | C11G A18G U41A | 0.09
78 | C11G A18U A20G U66C | 0.17
79 | C11G A18U A45U U69A | 0.1
80 | C11G A18U C32U U80G | 0.07
81 | C11G A18U U31A U41A U67A A75G U76A | 0.01
82 | C11G A18U U31A U60C U78C | 0.12
83 | C11G A18U U41C C44G | 0.05
